Assay results as given in PubChem BioAssay AID1671188 (National Center for Advancing Translational Sciences (NCATS), 2021).
Out of some 100,000 compounds screened, about 250 (0.25%) were called active. Inconclusive means that the source gave no clear call. Such entries were picked first, then a sample of the others. Calls follow the shape of the dose curve; as a rule, active = well fitted inhibition curve with a large enough effect; inconclusive = small, poorly fitted or top-dose-only effect; inactive = flat fitted curve, though single readings scatter. Potencies of inconclusive entries are left out as doubtful fits.
% is scaled to controls: 0 for no effect and ±100 for the full control effect; potency is read from the fitted curve at half-maximal effect; tags tell the direction and shape of the fitted curve.
Also: nearly all actives have a fitted effect of over 60% in size.

The compounds below were run against Alanine aminotransferase 2 (Homo sapiens) (UniProt Q8TD30) (assay: Primary qHTS assay for inhibitors of Glutamate pyruvate transaminase 2 (GPT2)). Conditions: Recombinant GPT2, coupled pyruvate oxidase/HRP Amplex Red fluorescence; activity change, negative = inhibition: at 57.7 µM (top of the series) unless noted; series mostly up to 57.7 µM.
Sequence of UniProt Q8TD30 (Q8TD30 whole entry, looked up): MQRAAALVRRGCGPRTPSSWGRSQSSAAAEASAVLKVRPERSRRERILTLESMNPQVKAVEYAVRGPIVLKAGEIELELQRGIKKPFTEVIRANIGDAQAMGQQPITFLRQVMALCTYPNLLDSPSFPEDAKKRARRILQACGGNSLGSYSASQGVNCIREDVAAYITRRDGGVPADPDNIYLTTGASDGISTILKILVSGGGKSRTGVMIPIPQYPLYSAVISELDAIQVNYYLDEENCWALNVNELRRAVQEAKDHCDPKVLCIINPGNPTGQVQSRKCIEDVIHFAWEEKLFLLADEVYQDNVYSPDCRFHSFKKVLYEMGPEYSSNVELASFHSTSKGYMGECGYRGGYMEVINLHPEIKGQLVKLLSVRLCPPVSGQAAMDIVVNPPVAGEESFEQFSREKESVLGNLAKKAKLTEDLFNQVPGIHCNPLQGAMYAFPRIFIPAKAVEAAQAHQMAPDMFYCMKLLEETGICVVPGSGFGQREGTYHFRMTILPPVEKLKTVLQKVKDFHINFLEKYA
Outline: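 Fluorescence of coupled pyruvate oxidase/HRP/Amplex Red system (50uM Amplex, 30 min, dark) reports pyruvate formed by GPT2. Enzyme reaction: 10ng/uL GPT2, 2mM L-alanine, 250uM a-KG, 30 min room temperature, pH 7.5; 50uM AOA control.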
In the case of COc1ncccc1-c1nc2cc(C(=O)Nc3cccc(Cl)c3)ccc2o1, the “activity change, negative = inhibition” value is reported as inactive: 3.71%. Cc1ccc(C(=O)N2CCCCC2C(=O)Nc2cccc(-c3nnc(C)s3)c2)cn1 (centres undefined) was tested, and the activity change, negative = inhibition was inconclusive: -30.9% [inhibitor]. CN1C(=O)C2(CCN(C(=O)c3cccc(Br)c3)C2)c2ccccc21 (centres undefined) was tested, and the “outcome” value was “inactive”. For COc1ccccc1NC(=O)NC[C@H]1O[C@H](Cc2cc(C(C)(C)C)on2)CC[C@@H]1O, the Potency was inconclusive [inhibitor, single point]. In the case of COc1ccc(S(=O)(=O)N[C@H]2C[C@@H](c3nc(-c4ccc(OC(F)(F)F)cc4)no3)N(C)C2)cc1, the Potency is reported as inconclusive [inhibitor, partial curve, poor fit]. For O=C(NCc1ccco1)N1CCCC2(C1)Nc1cccnc1NC2=NCc1ccccc1 (centres undefined), the Potency was inconclusive [inhibitor, single point]. For CCS(=O)(=O)Nc1ccc(C2(C(=O)N3CCN(CC(C)C)CC3)CCCCC2)cc1, the “outcome” value was “inactive”. For COc1ccccc1-c1cc(Nc2ccc(N3CCOCC3)cc2)c2onc(C)c2n1, the Potency was inconclusive [inhibitor, partial curve, poor fit]. With O=C(Nc1ccccc1)c1cnc2c(c1)N([S+](=O)([O-])c1cccnc1)CCC2 the Potency was inconclusive [inhibitor, full curve, poor fit]. In the case of O=C1CO[C@H]2CN(Cc3c[nH]c4ccccc34)C[C@H]2N1, the Potency is reported as inconclusive [inhibitor, partial curve, poor fit]. For COc1ccc(NC(=O)c2ccc3c(c2)C2(CCN(C)C2)CN3CC2CC2)cc1 (centres undefined), the Potency was inconclusive [inhibitor, single point]. With Cc1nn2c(c1-c1ccccc1OCc1ccccc1)N(C(=O)CN1CCOCC1)CCC2 the “activity change, negative = inhibition” value was inactive: -0.12%. For COc1ccc(-c2nnc(C[C@@H]3C[C@@H](C(C)C)[C@H](CN(C)CCc4ccccn4)C=C3C)o2)cc1, the Potency was inconclusive [inhibitor, single point]. Fc1cccc(CN2CCC(Cc3nc(-c4ccncc4)n[nH]3)C2)c1 (centres undefined) was tested, and the “outcome” value was “inactive”. For C=CCNC(=O)c1csc2nc(-c3cccc(C(F)(F)F)c3)cn12, the Potency was inconclusive [inhibitor, partial curve, poor fit]. For COc1ncccc1-c1nc(-c2c(C)noc2C)cc2c1cc(C)n2C, the Potency was inconclusive [inhibitor, full curve, poor fit]. For CC[C@H]1CN(S(=O)(=O)c2c(C)noc2C)CC[C@H]1CC(=O)NCc1ccc(F)cc1, the Potency was inconclusive [inhibitor, full curve, poor fit]. CC(C)(C)CC(=O)Nc1ccc([C@@H](O)[C@H]2COCC(=O)N2Cc2ccc(F)cc2)cc1 was tested, and the Potency was inconclusive [inhibitor, full curve, poor fit]. Cc1ccc(-c2cc(N3CCCN(C(=O)Cc4ccsc4)CC3)n[nH]2)cc1C was tested, and the Potency was inconclusive [inhibitor, single point]. With CCn1nccc1C(=O)N1C[C@@H](Oc2cccnc2)C[C@@H]1C(=O)NCCOC the “activity change, negative = inhibition” value was inactive: 3.78%. COc1ccc(CNc2nc(N(CCO)CCO)nc3c2ncn3C(C)C)cc1 was tested, and the Potency was inconclusive [inhibitor, single point]. O=C(CCC1CCN(c2cc(NC3CC3)ncn2)CC1)NCCN1CCCCC1 was tested, and the Potency was inconclusive [inhibitor, partial curve, poor fit]. CC(C)CCCC1CN(S(=O)(=O)c2ccsc2)CCO1 (centres undefined) was tested, and the Potency was inconclusive [inhibitor, single point]. With Cc1ccccc1C(=O)N1CCC[C@@H]1C(=O)N1CCCC(c2nc3ccncc3[nH]2)C1 (some centres undefined) the “activity change, negative = inhibition” value was inactive: 1.19%. In the case of CC[C@H]1OC(=O)[C@H](C)[C@@H](OC2C[C@@](C)(OC)[C@@H](O)[C@H](C)O2)[C@H](C)[C@@H](OC2O[C@H](C)C[C@H](NC)[C@H]2O)[C@](C)(O)C[C@@H](C)CN(C)[C@H](C)[C@@H](O)[C@]1(C)O (some centres undefined), the Potency is reported as inconclusive [inhibitor, partial curve, poor fit]. CC(=O)Oc1c(-c2ccc(NC(=O)c3ccco3)cc2)c(-c2cccc(F)c2)nn1-c1ccc(C)cc1 was tested, and the Potency was active: 28.2 µM. N#Cc1cccc(-c2cn3c(n2)N(C(=O)c2ccncc2)CCC3)c1 was tested, and the Potency was inconclusive [inhibitor, single point]. For Cc1nnn2c(C(=O)N(C)C)cccc12, the “activity change, negative = inhibition” value was inactive: 1.24% [at 88.5 µM]. In the case of O=C(NC1C[C@H]2CC[C@@H](C1)N2C(=O)C1CCCCCC1)c1ccc(F)cc1 (some centres undefined), the “activity change, negative = inhibition” value is reported as inactive: -3.1%. COCCCn1c(=O)c(C(=O)N2CCN(C(=O)C3CCCC3)CC2)nc2cccnc21 was tested, and the “outcome” value was “inactive”. In the case of Cc1noc(C)c1[S+](=O)([O-])N1CCn2c(nn(-c3ccc(C(F)(F)F)cc3)c2=O)C1, the Potency is reported as “inactive”. With Oc1ccc(C2CNCc3sccc32)cc1O (centres undefined) the Potency was inconclusive [inhibitor, single point]. For O=C(CCC[C@@H]1[C@H]2CCCN3CCC[C@@H](CN1C(=O)c1cc(F)cc(F)c1)[C@@H]23)NCC1CC1, the Potency was inconclusive [inhibitor, partial curve, poor fit]. Cc1cnc(C2CCN(S(C)(=O)=O)C2)n1C(C)C (centres undefined) was tested, and the Potency was inconclusive [inhibitor, single point]. For COc1cc(C=CC(=O)O)ccc1O, the Potency was inconclusive [inhibitor, partial curve, poor fit]. In the case of CC#CCn1cc2c3c(cccc31)[C@H](CC(C)C)N[C@H](C(=O)NCCOC)C2, the Potency is reported as inconclusive [inhibitor, partial curve, poor fit]. For O=C(c1cc(F)ccc1F)N1CCC(n2cc(-c3nc(-c4ccccc4)no3)nn2)C1 (centres undefined), the “outcome” value was “inactive”. With CN1CCC(Cc2noc(C3CC(=O)N(Cc4cccnc4)C3)n2)CC1 (centres undefined) the Potency was inconclusive [inhibitor, single point]. For COCCOCC(=O)N1CCC[C@H](n2c(=O)n(Cc3ccccc3)c3cccnc32)C1, the Potency was inconclusive [inhibitor, partial curve, poor fit].
